In PubChem BioAssay AID1963836 (Molecular Pharmacology Branch, DTP, NCI, 2024) one finds viability, T/C data, which are given here for three compounds.

Each structure is given as a SMILES string. Some entries of the source have several records that differ or are many. The list is limited to them. There may be further records. The values listed for one entry are repeated measurements in other runs, samples, wells, individuals or studies. Marks such as (2×) give the number of equal values in this list.

The assay has as its system 857933-349-R-J2-PDC complex spheroid viability. The experiment in a line: Anticancer human tumor 857933-349-R-J2-PDC patient-derived colon adenocarcinoma cell line growth inhibition [POLQ]. The conditions noted are these: stronger effect = lower value. As for the experimental part: Multicellular complex tumor spheroid response to Polymerase (POL) inhibitors (novobiocin, ART-558, RP6685) in combination with a variety of drugs and investigational agents in selected tumor cell lines
The POL inhibitors (novobiocin, ART-558, and RP6685) were evaluated both individually and in combination with standard of care and investigational anticancer small molecules within a complex spheroid model of solid tumors. . Complex spheroids include a stromal component modeled by human endothelial cells (HUVEC) and fibroblasts modeled by human mesenchymal stem cells (MSCs). The concentration ranges selected for each drug and investigational agent were based upon clinically achievable concentrations if the clinical Cmax of the agent was known.
Compounds. The drugs and investigational agents: novobiocin (NSC847541), ART-558 (NSC835418), RP-6685 (NSC848927), peposertib (NSC802822), ceralasertib (NSC780249), elimusertib (NSC800525), camonsertib (NSC841442), AZD-1390 (NSC803789), olaparib (NSC753686), talazoparib (NSC767125), rucaparib (NSC756644), sotorasib (NSC818433), MRTX-1133 (NSC836407), SN-38 (NSC673596), topotecan (NSC609699), epotoside (NSC141540), doxorubicin (NSC123127), gemcitabine (NSC613327), 5-fluorouracil (NSC19893), paclitaxel (NSC125973), vemurafenib (NSC761431), MSA-2 (NSC828583), SN-011 (NSC837082), adavosertib (NSC754352), prexasertib (NSC758257), carboplatin (NSC241240) and oxaliplatin (NSC266046), were obtained from the National Cancer Institute (NCI) Developmental Therapeutics Program Chemical Repository (21). The FDA-approved anticancer drug set is available from the Developmental Therapeutics Program at https://dtp.cancer.gov/organization/dscb/obtaining/. […] The stock solutions were prepared in dimethyl sulfoxide (DMSO, Sigma-Aldrich, St. Louis, MO, cat. D2650), except for the platinum compounds which were prepared in saline (Quality Biological, Gaithersburg, MD, cat. 114-055-101), at 800-fold the tested concentration and stored at -70 degrees C prior to their use. All drugs and investigational agents were tested over a range starting from a high concentration at or near the clinical Cmax and decreasing in half-log increments. If the clinical Cmax for an agent had not been determined, the highest concentration tested was 10 microM, except for SN-38, which was tested at a high concentration of 1 microM.
Cell Culture. All cells were maintained in an incubator at 37 degrees C and 5% CO2 with 95% humidity. The PDC lines were cultured according to standard operating procedures established by the NCI PDMR (https://pdmr.cancer.gov). Table 3 of the manuscript, lists the cell lines along with the number of the three cell types plated to form the mct-spheroids and media for tumor cell growth. After thawing, all PDC lines, except 997537-175-T-J1-PDC and 415267-285-R-J2-PDC, were cultured in Matrigel-coated flasks prepared with a working solution of 1X Ham's F-12 nutrient mix, without supplementation (Thermo Fisher Scientific, cat. 11765054), 100 U/mL penicillin-streptomycin (Thermo Fisher Scientific, cat. 15140122), and 2.5% Matrigel (Corning Inc., Corning, NY, cat. 354248) for the first three passages. The two PDC lines 997537-175-T-J1-PDC and 415267-285-R-J2-PDC were cultured on uncoated flasks. The 857933-349-R-J2-PDC line was cultured in 6C/Colon 1B media containing advanced DMEM/F-12 (Thermo Fisher Scientific, cat. 12634028), 10 mM HEPES (Thermo Fisher Scientific, cat. 15630080), 1X GlutaMAX supplement (Thermo Fisher Scientific, cat. 35050061), 0.1 mg/mL primocin (InvivoGen, San Diego, CA, cat. ant-pm-2), 10% defined fetal bovine serum, heat inactivated (HyClone Laboratories Inc., Logan, UT, cat. SH30070.03HI), 50% L-WRN conditioned media (ATCC, cat. CRL-3276), 1.25 mM N-Acetyl-L-cysteine (Sigma-Aldrich, cat. A9165), 10 mM nicotinamide (Sigma-Aldrich, cat. N0636), 1X B-27 supplement (Thermo Fisher Scientific, cat. 17504044), 1X N-2 supplement (Thermo Fisher Scientific, cat. […]
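Also: spheroids exposed to compounds for seven days before readout.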

With `COC1C(OC(N)=O)C(O)C(Oc2ccc3c(O)c(NC(=O)c4ccc(O)c(CC=C(C)C)c4)c(=O)oc3c2C)OC1(C)C` (configuration not stated), the viability, T/C is, setting by setting: (compound alone 0.0316 µM) 106, 89.9, 86.2, 84.9, 83.6, 83.4, 95, 89.2, 114, 78.5, 104, 101, 73%; (compound alone 0.1 µM) 90.1, 94.7, 98.7, 84.4, 97.1, 117, 78.1, 80.1, 91, 107, 118, 94, 102%; (compound alone 0.316 µM) 93.2, 92.6, 93.9, 107 (2×), 89, 89.1, 93.6, 105, 82.6, 121, 73.9, 89.5%; (compound alone 1 µM) 84.1, 114, 120, 90, 88.3, 94, 104, 99.7, 93.4, 84, 84.3, 92.4, 93.5%; (compound alone 3.16 µM) 94.6, 114, 107, 100, 110, 87.1, 101, 99.1, 111, 83, 96.8, 84, 105%; (compound alone 10 µM) 91.2, 92.5, 107, 91.4, 88.6, 117, 101, 112, 99.1, 76, 94.2, 91.5, 93.3%.
Consider `Nc1ccc(C#CCN(C(=O)Cc2ncc(C(F)(F)F)cc2C(F)(F)F)c2ccc(F)cc2)nn1`, for which, under “compound alone 3.16 µM”, the viability, T/C is 103 (2×), 98.9, 100, 104, 96.4, 93.5, 111, 96.3, 85.9, 96.6, 97.3, 98.6%.
Regarding `Cc1cccc(N(C)C(=O)C2C(O)CCN2c2nc(C)cc(C(F)(F)F)c2C#N)c1` (configuration not stated), the viability, T/C was 109, 92.9, 99.6, 100, 79.3, 87.9, 88, 131, 88.5, 99.3, 108, 87.7, 103% (compound alone 0.1 µM); 74.3, 92.2, 109 (2×), 79.1, 79.8, 93.7, 83.2, 83.5, 96.8, 93.9, 110, 103% (compound alone 0.316 µM); 84, 103, 89.1, 83.5, 89.4, 113, 61.4, 102, 96.9, 99.3, 104, 109, 112% (compound alone 1 µM); 94, 108, 85.2, 96.7, 103, 101, 91.9, 82.5, 116, 115, 102, 95.8, 109% (compound alone 3.16 µM); 107, 97.3, 93.4, 95.6, 80.4, 94.4, 76.2, 104, 94.1, 105, 86.5, 100, 97.1% (compound alone 10 µM).
